Screen size: about 310,000 compounds; about 2,200 (0.71%) showed an effect of 50% or more. Effects have a minus sign here. This is one part of the list.
Molecular target: human ether-à-go-go-related gene (hERG) potassium channel (human, UniProt Q12809)
Test: primary screen, population patch clamp on CHO cells stably expressing hERG

Sequence of human ether-à-go-go-related gene (hERG) potassium channel (Q12809 whole entry, looked up): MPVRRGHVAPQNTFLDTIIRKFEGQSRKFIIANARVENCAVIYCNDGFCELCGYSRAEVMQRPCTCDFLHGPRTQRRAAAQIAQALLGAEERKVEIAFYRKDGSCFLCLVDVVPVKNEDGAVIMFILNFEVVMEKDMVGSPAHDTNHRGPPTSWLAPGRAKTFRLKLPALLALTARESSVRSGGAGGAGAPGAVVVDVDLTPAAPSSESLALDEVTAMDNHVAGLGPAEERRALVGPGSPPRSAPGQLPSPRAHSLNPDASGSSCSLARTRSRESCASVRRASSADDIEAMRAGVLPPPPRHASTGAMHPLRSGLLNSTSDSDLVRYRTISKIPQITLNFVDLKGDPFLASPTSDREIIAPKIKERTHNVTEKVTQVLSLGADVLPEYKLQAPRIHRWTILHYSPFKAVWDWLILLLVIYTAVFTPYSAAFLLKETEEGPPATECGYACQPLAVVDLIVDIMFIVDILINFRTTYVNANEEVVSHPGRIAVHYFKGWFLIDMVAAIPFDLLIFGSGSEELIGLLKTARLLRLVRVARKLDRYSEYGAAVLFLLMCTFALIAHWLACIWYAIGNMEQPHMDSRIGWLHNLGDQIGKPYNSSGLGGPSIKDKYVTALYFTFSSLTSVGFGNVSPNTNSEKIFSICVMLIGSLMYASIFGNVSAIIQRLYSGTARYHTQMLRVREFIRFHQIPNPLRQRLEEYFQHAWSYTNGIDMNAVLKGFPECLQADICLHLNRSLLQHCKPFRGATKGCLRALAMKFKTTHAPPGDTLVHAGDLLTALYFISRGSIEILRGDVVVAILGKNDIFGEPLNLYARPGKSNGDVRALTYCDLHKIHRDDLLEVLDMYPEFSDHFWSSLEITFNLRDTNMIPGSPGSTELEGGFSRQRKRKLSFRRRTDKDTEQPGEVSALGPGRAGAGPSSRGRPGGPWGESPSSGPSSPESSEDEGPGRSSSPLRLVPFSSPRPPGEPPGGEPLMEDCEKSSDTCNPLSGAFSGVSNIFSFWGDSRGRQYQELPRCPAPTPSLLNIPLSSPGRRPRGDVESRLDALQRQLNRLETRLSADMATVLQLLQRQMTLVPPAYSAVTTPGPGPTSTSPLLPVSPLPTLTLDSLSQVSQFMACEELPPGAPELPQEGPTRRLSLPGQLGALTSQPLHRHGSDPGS

Row | SMILES | hERG current change (%, negative = inhibition) at 1uM
1 | COc1ccc(-c2cc(C(=O)N3CCCC3)no2)cc1 | 4.01%
2 | CC1=NN(c2ccccc2)C(=O)/C1=C\C=C1\N(C)c2ccccc2C1(C)C | -4.05%
3 | C=CCn1c(=N)c(C#N)cc2c(=O)n3ccccc3nc21 | -1.94%
4 | Cn1nc(C(F)(F)F)c2cc(C(=O)Nc3ccc(F)c(Cl)c3)sc21 | 13.3%
5 | O=C(C1CCN(C2CC(=O)N(c3ccc(Cl)cc3)C2=O)CC1)N1CCOCC1 (centres unmarked) | 2.01%
6 | CCN(CC)C(=O)CCSc1nnc(-c2ccco2)o1 | 14.3%
7 | CC1CCCC(NC(=O)CSc2nnnn2C)C1C (centres unmarked) | 13.2%
8 | CCCCOC(=O)CSC1=C(C#N)C(c2ccc3c(c2)OCO3)CC(=O)N1 (centres unmarked) | 5.7%
9 | CC(=O)Nc1c(O)nc(SCC(=O)N2CCN(c3ccc(F)cc3)CC2)[nH]c1=O | -5.78%
10 | NC(=O)C1CCN(CC(=O)NC(=O)NC2CCCC2)CC1 | 7.5%
11 | NC(=O)NCC(=O)N1CCC(C(O)(c2ccccc2)c2ccccc2)CC1 | 6.01%
12 | Cc1cccc(OCC(=O)N(Cc2ccc(C)o2)C2CCS(=O)(=O)C2)c1 (centres unmarked) | -17.3%
13 | COC(=O)CN1C(=O)C(O)(CC(=O)c2ccccc2)c2ccccc21 (centres unmarked) | 12.5%
14 | CCCc1cc(NCCCCO)n2c(nc3ccccc32)c1C#N | -18.6%
15 | CC(C)CNc1cc(Cl)c(S(=O)(=O)NCC(C)C)cc1C(=O)O | 3.8%
16 | O=C(CSCc1ccc(C(=O)O)cc1)Nc1ccc2ccccc2c1 | 10.6%
17 | CC(C)CC1=NN(C(=O)c2ccncc2)C(O)(C(F)(F)F)C1 (centres unmarked) | 0.872%
18 | CCCCC(CCC(=O)Nc1ccc(C(=O)OCC)cc1)C(=O)O (centres unmarked) | 15.7%
19 | O=C(CSc1ccc2nnc(-c3ccccc3)n2n1)N1CCCCC1 | -6.22%
20 | O=C(NNS(=O)(=O)c1ccccc1[N+](=O)[O-])c1ccc(O)cc1 | -16.1%
21 | O=C(N/C(=C/c1ccccc1Cl)C(=O)N1CCCC1)c1ccccc1 | 9.54%
22 | CCN(CC)S(=O)(=O)c1ccc2oc(Nc3ccc(OC)cc3)nc2c1 | 11.6%
23 | COc1c(Br)cc([N+](=O)[O-])c(OC)c1C(=O)NC(=O)Nc1c(Cl)cccc1Cl | 9.18%

Row | SMILES | hERG current change (%, negative = inhibition) at 1uM
24 | COc1ccc(/C=C2\SC(=O)N(CCNC(=O)C3CCN(S(=O)(=O)c4cccs4)CC3)C2=O)cc1 | 14.4%
25 | CCOc1ccc2nc3sc(C(=O)N4CCN(C)CC4)c(N)c3cc2c1 | 14%
26 | Cc1ccc(C)c(OCCn2nnc3ccccc32)c1 | 20.2%
27 | CCOc1ccc(N(C(C)C(=O)Nc2cccnc2)S(C)(=O)=O)cc1 (centres unmarked) | 13.6%
28 | CCn1c(=O)cc(OCC(=O)Nc2nc(C)cs2)c2ccccc21 | 10.1%
29 | COc1ccc(CN2CCN(c3ccccn3)CC2)c(OC)c1C.O=C([O-])C(=O)[O-] | -23.1%
30 | Cc1ccc(C(=O)O/N=C(\N)c2ccccn2)cc1 | 9.05%
31 | O=S(=O)(NCCc1c[nH]c2ccccc12)c1ccccc1 | 15.5%
32 | O=C(C1CCCN(S(=O)(=O)c2cccc3nsnc23)C1)N1CCC2(CC1)OCCO2 (centres unmarked) | 3.57%
33 | Cc1ccccc1-n1nc2c(c1NC(=O)c1ccco1)CS(=O)(=O)C2 | 16.8%
34 | O=C(Nc1ccc(S(=O)(=O)NC2CCCC2)cc1)c1cnccn1 | 7.58%
35 | CC(C)C[C@H](NC(=O)[C@@H]1Cc2ccccc2CN1C(=O)OC(C)(C)C)C(=O)NCC1CCC(C(=O)O)CC1 (some centres unmarked) | 14.3%
36 | C=C1C(C(=O)N2CCN(C)CC2)C1C(=O)N1CCN(C)CC1 (centres unmarked) | 5.61%
37 | c1ccc(OCc2nn3c(-c4ccncc4)nnc3s2)cc1 | 2.17%
38 | COc1ccc(NC(=O)C(=S)NC2CCCCC2)cc1 | -12.1%
39 | C=CCc1ccc(OCc2ccc(C(=O)Nc3ccc(NC(C)=O)cc3)o2)c(OC)c1 | 15.2%
40 | COc1ccccc1N1CCN(CCCCN2C(=O)C3CCCCN3C2=O)CC1 (centres unmarked) | 1.46%
41 | COc1cc(C(=O)NCCc2ccc(S(N)(=O)=O)cc2)cc(OC)c1OC | 12.6%
42 | CCOc1ccc(CN(C)C(=O)c2cccnc2OCC)cc1OC | 9.62%
43 | CCCCn1c(SC(C)C(=O)NCC2CCCO2)nc2cc(C(=O)OC)ccc2c1=O (centres unmarked) | -0.216%
44 | COc1ccc2nc(N/C(N)=N/C(=S)Nc3c(C)cccc3C)nc(C)c2c1 | 4.86%
45 | COc1ccc(/C=N/NC(=O)c2sccc2OCc2ccc(F)cc2)cc1OC | 12.4%
46 | O=[N+]([O-])c1cccc(S(=O)(=O)NCC2CCCO2)c1 (centres unmarked) | 15.2%

Row | SMILES | hERG current change (%, negative = inhibition) at 1uM
47 | O=C(N[C@@H](Cc1ccccc1)C(=O)NCCc1c[nH]c2ccccc12)c1ccco1 | 12.4%
48 | CC1(C)Cc2cccc(OCC(=O)Nc3nccs3)c2O1 | 11.8%
49 | COCCn1c(SCC(=O)N(C)c2ccccc2)nc2c([nH]c3ccccc32)c1=O | 8.01%
50 | CCOC(=O)c1c(NC(=O)CSc2nnc(CNc3ccc(F)cc3)o2)sc(C)c1C | 0.229%
51 | CCc1ccc(N=c2c([N+](=O)[O-])nn(-c3ccc4c(c3)OCCO4)n2O)cc1 | 4.65%
52 | COc1ccc(NS(=O)(=O)c2ccc3nc(COc4ccc(C#N)cc4)[nH]c3c2)cc1 | 9.44%
53 | Cc1ncc(CN2CCC(CO)(Cc3ccccc3)CC2)s1 | 4.55%
54 | O=C(COC(=O)CCSc1ccc(Cl)cc1)NCc1ccc(Cl)cc1 | 7.98%
55 | Cc1nn(CC2CC2)c(=O)n1-c1ccccc1F | 7.24%
56 | CCCn1c(=O)c(C(=O)Nc2ccccc2C)c(O)c2ccccc21 | 9.39%
57 | CCOc1cc(N2CCOCC2)c(OCC)cc1NC(=O)c1ccc2ccccc2n1 | 16.7%
58 | COc1ccc(CNC(=O)CN(C(=O)CCC(=O)Nc2ccccn2)c2cccc(C)c2C)cc1 | 12.7%
59 | CCOCCn1c(CCCO)nc2ccccc21 | 10.3%
60 | S=c1[nH]nc(COc2cccc3ccccc23)n1Cc1ccccc1 | 9.86%
61 | N#Cc1c(/N=C/C2C(=O)NC(=S)NC2=O)sc2c1CCCC2 | 16.2%
62 | CC(=O)c1cccc(NS(=O)(=O)c2cc3c(cc2C)NC(=O)CO3)c1 | -2.4%
63 | COc1ccc(S(=O)(=O)N(C)CC(=O)NCc2ccco2)cc1 | 5.4%
64 | CN1CCN(NC(=S)Nc2ccccc2)CC1 | 13.2%
65 | C=CCN(C(=O)c1cccc(N2C(=O)C3CC=CC(C)C3C2=O)c1)c1ccccc1 (centres unmarked) | 3.82%
66 | O=C(CCCn1cnc([N+](=O)[O-])n1)Nc1cccc(Cl)c1Cl | 6.16%
67 | CCCCOC(=O)c1ccccc1C(=O)OCCCC | 16%
68 | O=C(O)/C=C/C(=O)Nc1cccc2cccnc12 | 19.8%
69 | Cc1ccccc1N1CCN(C2CCCN(C(=O)c3ccc(Cl)s3)C2)CC1 (centres unmarked) | 1.61%

Row | SMILES | hERG current change (%, negative = inhibition) at 1uM
70 | Cc1ccccc1CSCCNC(=O)COc1ccc(Cl)cc1 | 1.64%
71 | Cc1ccc2nc(-c3ccco3)c(Nc3ccccc3)n2c1 | 12.2%
72 | CC(C)NC(=O)C(=O)Nc1cc2c3c(c1)C(C)C(=O)N3CCC2 (centres unmarked) | 19.1%
73 | COc1ccc(/C=C/C(=O)Nc2ccc(C)cc2)cc1S(=O)(=O)N1CCOCC1 | -7.51%
74 | O=C(NCc1ccco1)C1Cc2cc(Cl)ccc2O1 (centres unmarked) | 6.24%
75 | O=C(CCn1nc(-c2ccc(Cl)cc2)c2ccccc2c1=O)Nc1cccnc1 | -4.9%
76 | COc1ccc(CC(=O)NCCCc2ccccc2)cc1OC | 13.6%
77 | CC(=O)Nc1ccc(S(=O)(=O)C(C#N)c2nc3ccccc3nc2NCCO)cc1 (centres unmarked) | 13.3%
78 | CCCSc1nnc(N2C(=O)C(O)=C(C(=O)c3ccco3)C2c2ccccc2F)s1 (centres unmarked) | 15.3%
79 | COc1ccc(N2CCN(C(=O)CC(NC(N)=O)c3cccc(Oc4ccccc4)c3)CC2)cc1 (centres unmarked) | 0.067%
80 | Clc1ccc(C2=Nn3c(nnc3-c3n[nH]c4c3CCC4)SC2)cc1 | 11%
81 | Cc1cc2cc(CNC(=O)c3cccc([N+](=O)[O-])c3)ccc2[nH]1 | 1.47%
82 | CCOC(=O)C/C(N)=N/NC(=O)c1ccc(Cl)cc1Cl | 9.3%
83 | CC(OC(=O)C1=COCCO1)C(=O)Nc1ccc(Oc2ccccc2)cc1 (centres unmarked) | -6.24%
84 | COc1ccc(-c2cc(C(F)(F)F)c(C#N)c(SCC(=O)O)n2)cc1OC | 14.2%
85 | COc1ccc(C(=O)Nc2ccccc2N2CCCCC2)cc1[N+](=O)[O-] | -0.782%
86 | CC(=O)Nc1c(C)nn(C(C)=O)c1C | 11.8%
87 | Cc1ccc(OCC(=O)OCC(=O)NC2CC2)cc1C | 2.95%
88 | COc1cc(OC)c(C(=O)COc2ncnc3ccccc23)c(OC)c1 | 2.94%
89 | O=C(CSc1ccccc1)N1CCN(c2ccccc2)CC1 | -11.1%
